Experimental data published in the supplement of paper PMC4604168 (melanoma cell lines).
This is one part of the list. Most values come without repeats; read them as rough.

System: G361
Assay: cell count relative to DMSO control; melanoma cells; higher = more viable cells
Details: library dose: standard library concentration; 72 h
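Further: cells treated in 1,536-well plates, then fixed and DAPI-stained, with nuclei counted from automated high-throughput microscope images.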

Compound | cell count [%]
Cn1cnc2c(F)c(Nc3ccc(Br)cc3Cl)c(C(=O)NOCCO)cc21 [selumetinib] + O=C(O)C(=O)Nc1sc2c(c1C(=O)O)CCNC2 [TCS401] (first compound 0.075 µM, partner dose 8.33333 µM) | 82.9
COc1cc([C@@H]2c3cc4c(cc3[C@@H](O[C@@H]3O[C@@H]5CO[C@@H](C)O[C@H]5[C@H](O)[C@H]3O)[C@H]3COC(=O)[C@H]23)OCO4)cc(OC)c1O [etoposide] + C=C(c1ccc(C(=O)O)cc1)c1cc2c(cc1C)C(C)(C)CCC2(C)C [Bexarotene] (first compound 0.1 µM, partner dose 10 µM) | 80.9
C[C@]1(O)C[C@@H](c2nc(-c3ccc4ccc(-c5ccccc5)nc4c3)c3c(N)nccn32)C1 + C=C(c1ccc(C(=O)O)cc1)c1cc2c(cc1C)C(C)(C)CCC2(C)C [Bexarotene] (first compound 2 µM, partner dose 10 µM) | 58.5
C[C@]1(O)C[C@@H](c2nc(-c3ccc4ccc(-c5ccccc5)nc4c3)c3c(N)nccn32)C1 + NC1(c2ccc(-c3nc4ccn5c(=O)[nH]nc5c4cc3-c3ccccc3)cc2)CCC1 [MK2206] (first compound 2 µM, partner dose 2 µM) | 73.3
COc1cc([C@@H]2c3cc4c(cc3[C@@H](O[C@@H]3O[C@@H]5CO[C@@H](C)O[C@H]5[C@H](O)[C@H]3O)[C@H]3COC(=O)[C@H]23)OCO4)cc(OC)c1O [etoposide] + Cn1c(Nc2ccc(C(F)(F)F)cc2)nc2cc(Oc3ccnc(-c4ncc(C(F)(F)F)[nH]4)c3)ccc21 [CHIR265] (first compound 0.1 µM, partner dose 0.4 µM) | 35.6
Cn1cnc2c(F)c(Nc3ccc(Br)cc3Cl)c(C(=O)NOCCO)cc21 [selumetinib] + O=c1cc(-c2cccc3c2Sc2ccccc2S3)oc(N2CCOCC2)c1 [KU55933] (first compound 0.075 µM, partner dose 5 µM) | 54.2
C[C@]1(O)C[C@@H](c2nc(-c3ccc4ccc(-c5ccccc5)nc4c3)c3c(N)nccn32)C1 + Nc1ncn([C@H]2C[C@H](O)[C@@H](CO)O2)c(=O)n1 [decitabine] (first compound 2 µM, partner dose 0.5 µM) | 94.5
COc1cc([C@@H]2c3cc4c(cc3[C@@H](O[C@@H]3O[C@@H]5CO[C@@H](C)O[C@H]5[C@H](O)[C@H]3O)[C@H]3COC(=O)[C@H]23)OCO4)cc(OC)c1O [etoposide] + O=C(Nc1ccccc1)c1cc([N+](=O)[O-])ccc1Cl [GW9662] (first compound 0.1 µM, partner dose 10 µM) | 66.5
CCN(CC)CCNC(=O)c1c(C)[nH]c(/C=C2\C(=O)Nc3ccc(F)cc32)c1C [sunitinib] + NC1(c2ccc(-c3nc4ccn5c(=O)[nH]nc5c4cc3-c3ccccc3)cc2)CCC1 [MK2206] (first compound 2 µM, partner dose 2 µM) | 67.8
Cn1cnc2c(F)c(Nc3ccc(Br)cc3Cl)c(C(=O)NOCCO)cc21 [selumetinib] + COCC[n+]1c2c(n(Cc3cnccn3)c1C)C(=O)c1ccccc1C2=O [YM155] (first compound 0.075 µM, partner dose 0.002 µM) | 77.2
Cn1cnc2c(F)c(Nc3ccc(Br)cc3Cl)c(C(=O)NOCCO)cc21 [selumetinib] + NC1(c2ccc(-c3nc4ccn5c(=O)[nH]nc5c4cc3-c3ccccc3)cc2)CCC1 [MK2206] (first compound 0.075 µM, partner dose 2 µM) | 33
COc1cc([C@@H]2c3cc4c(cc3[C@@H](O[C@@H]3O[C@@H]5CO[C@@H](C)O[C@H]5[C@H](O)[C@H]3O)[C@H]3COC(=O)[C@H]23)OCO4)cc(OC)c1O [etoposide] + COc1cc(Nc2ncc(F)c(Nc3ccc4c(n3)NC(=O)C(C)(C)O4)n2)cc(OC)c1OC [Tamatinib] (first compound 0.1 µM, partner dose 2 µM) | 78.3
Cn1cnc2c(F)c(Nc3ccc(Br)cc3Cl)c(C(=O)NOCCO)cc21 [selumetinib] + CC(C)C[C@H](NC(=O)[C@H](Cc1ccccc1)NC(=O)c1cnccn1)B(O)O [Bortezomib] (first compound 0.075 µM, partner dose 0.005 µM) | 0.733
